The source gives no read counts; variants with many changes may rest on few reads.
B1: LINE1-mini (parent)
chain: GGCAGAGCUCAACACAGCGUGGCAAAGUGGCUGUGGCUAGACUGCC

Variants of: B1
Assay: self-cleavage, relative activity (ratio to wild type); higher = more cleavage; in vitro, sequencing; the parent is a self-cleaving ribozyme
Work on C3U C10A A14U C46A yielded a self-cleavage of 0.08.
Work on C3U C23U G27A C31A yielded a self-cleavage of 0.1.
Work on C3U C10A A24C G33C yielded a self-cleavage of 0.03.
C3U C10U G36A C45G C46A gave a self-cleavage of 0.12.
In the case of C3U C13U G17U A24U C37G, the self-cleavage is reported as 0.05.
C3U C8G C23A gave a self-cleavage of 0.05.
Variant C3U C10G A12C U20G C23G U38A C42A has a self-cleavage of 0.
For C3U C13U G30U, the self-cleavage was 0.1.
With C3U C23U A24G G36C the self-cleavage was 0.37.
C3U C8A A25C A41U G44A gave a self-cleavage of 0.7.
Work on C3U C18U G21A U28A G35A U38A A39G yielded a self-cleavage of 0.09.
With C3U G21U C45U the self-cleavage was 0.33.
Work on C3U C13A U20G C23A G33C C37U yielded a self-cleavage of 0.01.
Work on C3U C15A G17A C37G yielded a self-cleavage of 0.03.
Work on C3U C23G G30U U43A yielded a self-cleavage of 0.08.
For C3U G7A A11G G36U C37A, the self-cleavage was 0.03.
Work on C3U G21U C31U A41C yielded a self-cleavage of 0.02.
In the case of C3U G5C C10A C15A G30U G36C U43A, the self-cleavage is reported as 0.01.
In the case of C3U C13G C15G G44C, the self-cleavage is reported as 0.08.
Variant C3U G7A C10A has a self-cleavage of 0.03.
C3U C10A C13U C46U gave a self-cleavage of 0.04.
C3U C10U U20G U32A U43A gave a self-cleavage of 0.04.
C3U C31A U43A showed a self-cleavage of 0.02.
Variant C3U G7C A24G has a self-cleavage of 0.07.
C3U C8U C18U G36A C37U A41C showed a self-cleavage of 0.12.
C3U A26U A41C showed a self-cleavage of 0.05.
Work on C3U G5U A25G C31A yielded a self-cleavage of 0.04.
Variant C3U G7C G29C C45G has a self-cleavage of 0.
Work on C3U G21U G33A yielded a self-cleavage of 0.02.
Work on C3U A41U C45U yielded a self-cleavage of 0.18.
Variant C3U G5A C10G U34A has a self-cleavage of 0.02.
C3U G5C G21U showed a self-cleavage of 0.14.
Variant C3U C13U U28A G35A has a self-cleavage of 0.23.
In the case of C3U C10A A26U, the self-cleavage is reported as 0.01.
In the case of C3U C15G C31U G40U, the self-cleavage is reported as 0.01.
C3U A24U A26C U43C gave a self-cleavage of 0.03.
For C3U G5A C18U G27U G36A G40C, the self-cleavage was 0.13.
Variant C3U C23U G35C has a self-cleavage of 0.19.
C3U C15A U32C C42U showed a self-cleavage of 0.04.
For C3U G17A C37G, the self-cleavage was 0.01.
With C3U G5A G17U G21A G30C the self-cleavage was 0.04.
With C3U C8G A26U the self-cleavage was 0.02.
For C3U G7U G17C, the self-cleavage was 0.11.
With C3U C8U G22A A24G A41G G44A the self-cleavage was 0.36.
For C3U G29U C45G, the self-cleavage was 0.02.
Work on C3U C8A U9C C13U G17U U20C C31U U32C yielded a self-cleavage of 0.07.
Variant C3U C18G A39G has a self-cleavage of 0.01.
For C3U C10G C23A, the self-cleavage was 0.04.
In the case of C3U G7A U20A, the self-cleavage is reported as 0.09.
Variant C3U C10A A26C A41G G44A has a self-cleavage of 0.01.
For C3U C10G A26U A41C C45G C46A, the self-cleavage was 0.01.
For C3U C13A C18G G22U G44U, the self-cleavage was 0.05.
Variant C3U G29U C42G has a self-cleavage of 0.03.
Work on C3U C8U C45G C46U yielded a self-cleavage of 0.74.
Work on C3U C10G A24G yielded a self-cleavage of 0.04.
Variant C3U A25C G35A G40A has a self-cleavage of 0.05.
Variant C3U C10A C23U has a self-cleavage of 0.03.
For C3U G7C C23A C45A, the self-cleavage was 0.23.
C3U C10G G17C U34G gave a self-cleavage of 0.03.
For C3U C10A C31A, the self-cleavage was 0.07.
For C3U G27A U28C U34G, the self-cleavage was 0.07.
Variant C3U G7U U28G G30A A41C has a self-cleavage of 0.04.
Variant C3U G7U G27A G29U C31U C37U has a self-cleavage of 0.01.
For C3U A26C C31A, the self-cleavage was 0.11.
C3U G22U G29C C46G gave a self-cleavage of 0.85.
C3U G29A G33A C42A C45A showed a self-cleavage of 0.01.
In the case of C3U G5C U20A A26G U28G G33U A39U C45G, the self-cleavage is reported as 0.01.
With C3U C13G C23A G29U C37U the self-cleavage was 0.36.
Work on C3U G7C G17C A25G U34A yielded a self-cleavage of 0.02.
In the case of C3U G19C C31A, the self-cleavage is reported as 0.14.
Work on C3U G22C C31A C37A yielded a self-cleavage of 0.09.
For C3U G7U C13U, the self-cleavage was 0.27.
C3U G5U C10A A26C G29A showed a self-cleavage of 0.04.
C3U G30C G36C C37U G40C C42G showed a self-cleavage of 0.02.
In the case of C3U A26G G29U, the self-cleavage is reported as 0.72.
With C3U C18A U38C the self-cleavage was 0.06.
With C3U G30U C42U the self-cleavage was 0.09.
With C3U G22A A25C U28G the self-cleavage was 0.34.
For C3U C18A C42U C46A, the self-cleavage was 0.1.
With C3U G7C A39U the self-cleavage was 0.08.
C3U G5A C31A A41G gave a self-cleavage of 0.03.
In the case of C3U G21U A26U U32G, the self-cleavage is reported as 0.1.
Work on C3U C18U U32G A39G G44C yielded a self-cleavage of 0.14.
C3U C18G G19A U20C A26C showed a self-cleavage of 0.03.
With C3U G30U G44U the self-cleavage was 0.
Work on C3U C23U A25U G35C G40A yielded a self-cleavage of 0.06.
Work on C3U G19A C23A A39G U43A yielded a self-cleavage of 0.1.
C3U A25G C42A C45G showed a self-cleavage of 0.16.
Variant C3U G17C G29U G35U has a self-cleavage of 0.05.
With C3U C8A G17C G29U A39U the self-cleavage was 0.25.
C3U C13A C45G showed a self-cleavage of 0.1.
C3U C13A C45U gave a self-cleavage of 0.05.
In the case of C3U C8U C31U, the self-cleavage is reported as 0.2.
C3U C8A C15A showed a self-cleavage of 0.64.
In the case of C3U G29C C31A C46U, the self-cleavage is reported as 0.05.
In the case of C3U C23A G29C G44C, the self-cleavage is reported as 0.1.
For C3U G17U C31G C37U, the self-cleavage was 0.13.
In the case of C3U C13A C31A G35U, the self-cleavage is reported as 0.14.
C3U G22A A26U G30U C37U U43C showed a self-cleavage of 0.03.
In the case of C3U C8U C13U G35A G44A, the self-cleavage is reported as 0.21.
Work on C3U C15A A16U U28C A41C yielded a self-cleavage of 0.02.
With C3U G5U G21U C37U the self-cleavage was 0.08.
C3U G22C G27U showed a self-cleavage of 0.12.
Work on C3U C8A C10U U20A yielded a self-cleavage of 0.14.
C3U C10A G19U G33C showed a self-cleavage of 0.06.
With C3U C10U U20C G21C the self-cleavage was 0.02.
C3U G22U A41C gave a self-cleavage of 0.03.
In the case of C3U C10A C23G C45A, the self-cleavage is reported as 0.03.
C3U C15U G35U U38G A41C showed a self-cleavage of 0.03.
C3U C18U G33U U38A showed a self-cleavage of 0.05.
Variant C3U C15U C18U A25G C37A has a self-cleavage of 0.14.
Work on C3U G22U C37G yielded a self-cleavage of 0.04.
In the case of C3U G7C C23A G35U, the self-cleavage is reported as 0.09.
In the case of C3U C8U C18U A25C G27U, the self-cleavage is reported as 0.33.
Variant C3U G22A A41C has a self-cleavage of 0.03.
C3U G40A A41C C42U showed a self-cleavage of 0.06.
For C3U C10A G17C C23U C46A, the self-cleavage was 0.01.
Variant C3U G21U G22C has a self-cleavage of 0.31.
For C3U C15A U20G G29U U43C, the self-cleavage was 0.
C3U C18G G19U G30C G40U showed a self-cleavage of 0.03.
C3U G21A C31G G40A A41C showed a self-cleavage of 0.02.
For C3U A24U A25U G33U, the self-cleavage was 0.11.
In the case of C3U G17U U28G G33U C46A, the self-cleavage is reported as 0.03.
C3U G5U G27U C42U gave a self-cleavage of 0.23.
With C3U A39U G44C the self-cleavage was 0.09.
With C3U G19A G22U C42A the self-cleavage was 0.1.
C3U G5U C10A gave a self-cleavage of 0.04.
For C3U G27A A41G G44A, the self-cleavage was 0.08.
C3U G21C C31U C42U gave a self-cleavage of 0.07.
C3U C18A G21U A24U U28C U43G showed a self-cleavage of 0.01.
In the case of C3U C23U A26G C31U, the self-cleavage is reported as 0.03.
Variant C3U C8G G21A C37U has a self-cleavage of 0.1.
Work on C3U C8U A16G G17C U20C yielded a self-cleavage of 0.01.
Variant C3U C31U G40A A41C has a self-cleavage of 0.03.
Work on C3U G27A U34C yielded a self-cleavage of 0.11.
With C3U G21C G33A the self-cleavage was 0.07.
Variant C3U C15U G17C C42A U43A has a self-cleavage of 0.07.
With C3U G22U U32G U38A C46A the self-cleavage was 0.04.
For C3U G17C G19U G29C C37U, the self-cleavage was 0.1.
Variant C3U C15G G17A G36U A41U has a self-cleavage of 0.02.
C3U C10A G17A G19U gave a self-cleavage of 0.03.
Variant C3U C8A U32C G33U A39C has a self-cleavage of 0.18.
Variant C3U C8G A12C has a self-cleavage of 0.04.
Variant C3U C13G U20G U32G C42A has a self-cleavage of 0.02.
For C3U C10G A12U A25U G29A, the self-cleavage was 0.02.
Variant C3U C8A A25G G27C G30C has a self-cleavage of 0.11.
In the case of C3U G7A C10A G40A, the self-cleavage is reported as 0.07.
In the case of C3U G5U C31A U38A, the self-cleavage is reported as 0.01.
C3U G7C C13U A14C G19U G29U G40U showed a self-cleavage of 0.04.
C3U G5A G29A gave a self-cleavage of 0.28.
Variant C3U C23U A24G U28C C45A has a self-cleavage of 0.14.
Work on C3U C8A C13U C15A G30C yielded a self-cleavage of 2.2.
C3U G17U G30C C31A gave a self-cleavage of 0.6.
Variant C3U C10A C23G G30U has a self-cleavage of 0.04.
For C3U G5C C42U, the self-cleavage was 0.09.
For C3U G7A C46A, the self-cleavage was 0.4.
With C3U C31A G33U the self-cleavage was 0.06.
In the case of C3U C15U G19C, the self-cleavage is reported as 0.46.
Variant C3U C15U C31A G35U C37G has a self-cleavage of 0.08.
Work on C3U C8A C18G yielded a self-cleavage of 0.15.
Work on C3U G21A G40U yielded a self-cleavage of 0.11.
Work on C3U C15A C23A yielded a self-cleavage of 0.01.
Variant C3U C15G A41G has a self-cleavage of 0.03.
C3U C15G A16U A25C gave a self-cleavage of 0.03.
Variant C3U G22C C31A G33C has a self-cleavage of 0.08.
Variant C3U G21A G22A has a self-cleavage of 0.2.
C3U G19U U20A C31U U32A gave a self-cleavage of 0.05.

— the RNAGym collection of RNA variant scans (doi:10.7554/elife.90254)
